In patent US6204276A, “Dicarboxylic germanium complex and its therapeutic use” (Primamedic Ltd., priority 1996, dated 2001):

Test system: WSN strain of influenza A virus (H1N1)
Experiment: Investigation of anti-influenza activity
Conditions: statement in words

**Q.** Which anti-influenza effect does the source give for O=C1[O][Ge]2([O]C(=O)c3cccc1n3)[O]C(=O)c1cccc(n1)C(=O)[O]2 [Compound I, germanium bis(pyridine-2,6-dicarboxylate)] here?
**A.** Its anti-influenza effect is “high anti-influenza effect”.
